The values below come from a collection of fitness landscapes (doi:10.1016/j.celrep.2020.107928).

Over roughly 81,000 sequences, “one-hybrid fitness for binding NBS DNA” has its median near -0.1; the highest 2% begin near 0.36. Some of the results follow.

Sequences and labels used below:
B1: Caulobacter ParB omega fusion; a variant is named by its letters at X, in order, B8GW30 (parent)
chain: MESVVVGEPGMSEGRRGLGRGLSALLGEVDAAPAQAPGEQLGGSREAPIEILQRNPDQPRRTFREEDLEDLSNSIREKGVLQPILVRPSPDTAGEYQIVAGERAWRAAQRAGLKTVPIMVRELDDLAVLEIGIIENVQRADLNVLEEALSYKVLMEKFERTQENIAQTIGKSXSHVANXMRLLXLPDEVQSYLVSGELTAXHARAIAAAADPVALAKQIIEGGLSVRETEALARKAPNLSAGKSKGGRPPRVKDTDTQALESDLSSVLGLDVSIDHRGSTGTLTITYATLEQLDDLCNRLTRGI

Variants of B1 are the subject of the assay. Nature of the assay: one-hybrid fitness for binding NBS DNA (the Noc-binding site; scaled: cognate 1, non-cognate 0); higher = stronger binding. The following applies: with NBS DNA site. In a few lines: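 Fitness here means the log change in variant-to-wild-type read ratio between plasmids sequenced before and after selection. That scale was set so cognate equals 1 and non-cognate equals 0. The selection was a bacterial one-hybrid screen of Caulobacter ParB libraries, four specificity codons randomised, in E. coli USO carrying a HIS3 reporter with the site 19 bp from the promoter, grown 48 hours at 37°C on M9-minus-histidine with 0.1 mM IPTG and 5 mM 3-AT.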
For the variant SGKE, the “one-hybrid fitness for binding NBS DNA” value was at most 0.2.

In the case of NPIY, the “one-hybrid fitness for binding NBS DNA” value was at most 0.2.

For WSHS, the “one-hybrid fitness for binding NBS DNA” value is at most 0.2.

Consider TSTG, for which the “one-hybrid fitness for binding NBS DNA” value was at most 0.2.

Turning to DSMC, the “one-hybrid fitness for binding NBS DNA” value is at most 0.2.

As for RCFN, the “one-hybrid fitness for binding NBS DNA” value was at most 0.2.

For the variant VYTS, the “one-hybrid fitness for binding NBS DNA” value is at most 0.2.

As to SNTV, the “one-hybrid fitness for binding NBS DNA” value was at most 0.2.

On to PRVE, for which the “one-hybrid fitness for binding NBS DNA” value is at most 0.2.

Take TNVY: the “one-hybrid fitness for binding NBS DNA” value is at most 0.2.

In the case of MRTT, the “one-hybrid fitness for binding NBS DNA” value was at most 0.2.

As for SWKK, the “one-hybrid fitness for binding NBS DNA” value was at most 0.2.

STCE: the “one-hybrid fitness for binding NBS DNA” value was at most 0.2.

For AKVE, the “one-hybrid fitness for binding NBS DNA” value was at most 0.2.

As to QRYS, the “one-hybrid fitness for binding NBS DNA” value was determined as 0.646.

With DHFS, the “one-hybrid fitness for binding NBS DNA” value was at most 0.2.

For ASNR, the “one-hybrid fitness for binding NBS DNA” value is at most 0.2.

As for YILT, the “one-hybrid fitness for binding NBS DNA” value was at most 0.2.

As for DSSR, the “one-hybrid fitness for binding NBS DNA” value was at most 0.2.

On to AYTD, for which the “one-hybrid fitness for binding NBS DNA” value was at most 0.2.

In the case of GTKG, the “one-hybrid fitness for binding NBS DNA” value is at most 0.2.

For MAWR, the “one-hybrid fitness for binding NBS DNA” value is at most 0.2.

For the variant RPFM, the “one-hybrid fitness for binding NBS DNA” value is at most 0.2.

ILMW: the “one-hybrid fitness for binding NBS DNA” value was at most 0.2.

With NGNH, the “one-hybrid fitness for binding NBS DNA” value is at most 0.2.

On to RVRL, for which the “one-hybrid fitness for binding NBS DNA” value was at most 0.2.

Turning to AQEW, the “one-hybrid fitness for binding NBS DNA” value was at most 0.2.

For PLLK, the “one-hybrid fitness for binding NBS DNA” value is at most 0.2.

Turning to SRKF, the “one-hybrid fitness for binding NBS DNA” value is at most 0.2.

In the case of REHM, the “one-hybrid fitness for binding NBS DNA” value was at most 0.2.

With ASVG, the “one-hybrid fitness for binding NBS DNA” value is at most 0.2.

As for PLMC, the “one-hybrid fitness for binding NBS DNA” value is at most 0.2.

Consider DMSL, for which the “one-hybrid fitness for binding NBS DNA” value was at most 0.2.

Regarding ANSI, the “one-hybrid fitness for binding NBS DNA” value was at most 0.2.

In the case of ARNL, the “one-hybrid fitness for binding NBS DNA” value was at most 0.2.

In the case of KAFV, the “one-hybrid fitness for binding NBS DNA” value was at most 0.2.

With NPIV, the “one-hybrid fitness for binding NBS DNA” value is at most 0.2.

With HAFR, the “one-hybrid fitness for binding NBS DNA” value was at most 0.2.

For VIMI, the “one-hybrid fitness for binding NBS DNA” value was at most 0.2.

On to QVGT, for which the “one-hybrid fitness for binding NBS DNA” value is 0.338.

As to QHWY, the “one-hybrid fitness for binding NBS DNA” value is at most 0.2.

MPQH: the “one-hybrid fitness for binding NBS DNA” value is at most 0.2.

For the variant EDTG, the “one-hybrid fitness for binding NBS DNA” value was at most 0.2.

For TTEP, the “one-hybrid fitness for binding NBS DNA” value is at most 0.2.

With RWHW, the “one-hybrid fitness for binding NBS DNA” value was at most 0.2.

Turning to AHAR, the “one-hybrid fitness for binding NBS DNA” value was at most 0.2.

For the variant NGHK, the “one-hybrid fitness for binding NBS DNA” value was at most 0.2.

Turning to WVMS, the “one-hybrid fitness for binding NBS DNA” value was at most 0.2.

As to ARIG, the “one-hybrid fitness for binding NBS DNA” value was at most 0.2.

With APET, the “one-hybrid fitness for binding NBS DNA” value was at most 0.2.

With KRHR, the “one-hybrid fitness for binding NBS DNA” value stood at 0.616.

On to PIWY, for which the “one-hybrid fitness for binding NBS DNA” value is at most 0.2.

For IIPI, the “one-hybrid fitness for binding NBS DNA” value is at most 0.2.

With LITH, the “one-hybrid fitness for binding NBS DNA” value was at most 0.2.

Consider WAPH, for which the “one-hybrid fitness for binding NBS DNA” value was at most 0.2.

With LIYP, the “one-hybrid fitness for binding NBS DNA” value was at most 0.2.

In the case of HTPF, the “one-hybrid fitness for binding NBS DNA” value was at most 0.2.

For KWSV, the “one-hybrid fitness for binding NBS DNA” value is at most 0.2.

On to HNIS, for which the “one-hybrid fitness for binding NBS DNA” value is at most 0.2.

WVYG: the “one-hybrid fitness for binding NBS DNA” value was at most 0.2.

Regarding SSDA, the “one-hybrid fitness for binding NBS DNA” value is at most 0.2.

With RCIY, the “one-hybrid fitness for binding NBS DNA” value is at most 0.2.

On to FLGA, for which the “one-hybrid fitness for binding NBS DNA” value was at most 0.2.

As to SCSR, the “one-hybrid fitness for binding NBS DNA” value is at most 0.2.

With MYMW, the “one-hybrid fitness for binding NBS DNA” value was at most 0.2.

As for HFNA, the “one-hybrid fitness for binding NBS DNA” value is at most 0.2.

Consider DLIR, for which the “one-hybrid fitness for binding NBS DNA” value is at most 0.2.

KNQR: the “one-hybrid fitness for binding NBS DNA” value is at most 0.2.

For the variant HQKI, the “one-hybrid fitness for binding NBS DNA” value was at most 0.2.

For the variant NRTT, the “one-hybrid fitness for binding NBS DNA” value is at most 0.2.

Take LSDC: the “one-hybrid fitness for binding NBS DNA” value is at most 0.2.

For SRRR, the “one-hybrid fitness for binding NBS DNA” value was found to be 0.281.

Turning to NCES, the “one-hybrid fitness for binding NBS DNA” value was at most 0.2.

As to HDWS, the “one-hybrid fitness for binding NBS DNA” value was at most 0.2.

As for YWPR, the “one-hybrid fitness for binding NBS DNA” value was at most 0.2.

With PRGS, the “one-hybrid fitness for binding NBS DNA” value was at most 0.2.

For HHLE, the “one-hybrid fitness for binding NBS DNA” value is at most 0.2.

In the case of LRMY, the “one-hybrid fitness for binding NBS DNA” value was at most 0.2.

SVDW: the “one-hybrid fitness for binding NBS DNA” value was at most 0.2.

Take QTGS: the “one-hybrid fitness for binding NBS DNA” value was 0.557.

As to CNTH, the “one-hybrid fitness for binding NBS DNA” value was at most 0.2.

For PPKH, the “one-hybrid fitness for binding NBS DNA” value was at most 0.2.

For the variant PSQY, the “one-hybrid fitness for binding NBS DNA” value was at most 0.2.

On to QWMS, for which the “one-hybrid fitness for binding NBS DNA” value was at most 0.2.
